# Laboratory results from article PMC12136788.
# The other results are listed elsewhere or left out.
# B1: 49353820_49354314_1221_CDS_ENSMUSG00000039542_ENSMUST00000166811|mouse|control|control (ssRNA)
# RNA: GGGAGUUCUACAGUCCGACGAUCACAGGUGAUGUUCACCUGGUUCCCUUCCCAAGUGUACACAGCCACAGGGCCCUGGAGCUUGGGAGCAUAUUGAACUUCGAGGUACAUGGACUGGGAAUCCUGGCCGAUGGUGUUGCUGGCCAACAGAGGAUUGAGCAUCA
# B2: chr1:29069144:29069145:+_ENSG00000198492_ENST00000541996|perfect_dup|FALSE|FALSE (ssRNA)
# RNA: GGGAGUUCUACAGUCCGACGAUCGAGAAGUCAAUCCCACUGGGAAAAAAAUUAAAACCAUGCUGACCAAGAAAUGGAGUGCUACCUAGGGCUCCUGGUUGCCCAAACAUUGCAUCUGGUAGAAAGUGGGGCUCUCCGUUGCUCCAACAGAGGAUUGAGCAUCA
# B3: chr4:110384322:110384323:+_ENSG00000138802_ENST00000265175|hu_hu|FALSE|FALSE (ssRNA)
# RNA: GGGAGUUCUACAGUCCGACGAUCGUAUGGUUGGGAGGCACUCGUAUGCAAAUGGGAUGCUGACGAUGCAGCACCUUGGAAAGAUCCUAGAGUGGAUCCCACAAUAUGAGGGGCAGGAGGACCCCUGCUGUACAACUGCUGUGCCAACAGAGGAUUGAGCAUCA
# B4: 46246592_46254616_4918_CDS_ENSG00000189079_ENST00000334344|human|control|control (ssRNA)
# RNA: GGGAGUUCUACAGUCCGACGAUCUUGUACAGCUGGUGAAGGUGGCAUAGGAGUGUUCUGCGGGACCACAUUCUGUACAUAUGUUGGUGGAUGCUGUUGCUUUUGCUGAACAGCACUUUCUAUUGCUACUUUAGCUACAGUGCUCAACAGAGGAUUGAGCAUCA
# B5: chr10:80924034:80924035:-_ENSMUSG00000034818_ENSMUST00000118763|mus_hu|FALSE|FALSE (ssRNA)
# RNA: GGGAGUUCUACAGUCCGACGAUCAAGUGAAGGGAUCGCAGAGAGCAGCUUUGGAUUUUGCUUCUGGUUGGCAGUUCCUGAAGGUGCGUUCUGUGCAGGUAAAUACUCCCAAAUCUGUGUGUGCUGACCCGGGAGAAGGUGAAACAACAGAGGAUUGAGCAUCA
# B6: chr18:56902939:56902940:+_ENSMUSG00000024590_ENSMUST00000025486|mus_mus|FALSE|FALSE (ssRNA)
# RNA: GGGAGUUCUACAGUCCGACGAUCUGUGACGCCAGCAUUUGCAGCCCACACUGUGACAGUCUGGCCAGCCUUCAGCACAUAUCUUGAGGUAUAUUUGUAACUGACUGAUGUGUCUCCAAUUUUUCUGAUCAUCUCCCAGCCUCCCAACAGAGGAUUGAGCAUCA
# B7: chr22:32879901:32879902:+_ENSG00000100225_ENST00000397426|hu_mus|hu_hu_hu_mus_False|8_8 (ssRNA)
# RNA: GGGAGUUCUACAGUCCGACGAUCCUCUUCCAUACUCAUGGCAUCCUGAAUUGACUCAGCUUCAACAUUUUGACUAGGCCCUUCCAUACUGUCAUCAGUCCAGGCAUCAAAUGGGGUGGCCUGUCCUUGGAAUGAAUCAGUCCCCAACAGAGGAUUGAGCAUCA
# B8: chr5:145543945:145543946:-_ENSG00000133706_ENST00000545646|hu_hu|hu_hu_hu_mus_True|38_48 (ssRNA)
# RNA: GGGAGUUCUACAGUCCGACGAUCCUGAACGGCCAGUGGUGGGAAAUAAUCAAGCCAGUGCUCUGCUUCAGAAAACUUCACUAUGUCUUCAUCAGACAGGCCAAGGGAUUUCAUAAUGUCCCACUGGUACUUAGAAGAUCCUGCCAACAGAGGAUUGAGCAUCA
# B9: chr16:94664741:94664742:+_ENSMUSG00000040785_ENSMUST00000117648|mus_hu|mus_mus_mus_hu_False|58_88 (ssRNA)
# RNA: GGGAGUUCUACAGUCCGACGAUCUGGUACUGAUCUUGGUAGCUGAUACUCAGAAGAAAGGCUGGCCAAGGGUGUAUAAAUGCUAGUGUACUGGGGCAAACCUGGUAACACGUUUAUGUAUGCUGGCGGUGUCUGGGUGAUAUCCAACAGAGGAUUGAGCAUCA
# B10: chr16:94914985:94914986:+_ENSMUSG00000022897_ENSMUST00000023614|mus_mus|FALSE|FALSE (ssRNA)
# RNA: GGGAGUUCUACAGUCCGACGAUCAUUGUGAGGCAAAAAAGCAGUCACAUAAAAUUCUGCAUUUUAAAAUGUUCAGGGUGAACAGAAGACGUCUUUGUGCAGAAGAAAUGGUGGAGACACCACGUGCCGAGAAAAAGCCAAAGACAACAGAGGAUUGAGCAUCA
# B11: chr8:95500983:95500984:-_ENSG00000164944_ENST00000437199|hu_hu|hu_hu_hu_mus_True|48_58 (ssRNA)
# RNA: GGGAGUUCUACAGUCCGACGAUCAGAACACAUCUAUCGAGUAAAGGACCGUACAUGACGGCCUCUACCACUGCCUCCCACUAACAAACUUUCCUCUGAGCCUCCACUGCCGCUAUUUGUACUAGCCCAGGACGGUCCCAGGCCCAACAGAGGAUUGAGCAUCA
# B12: chr4:76721835:76721836:+_ENSG00000138768_ENST00000264904|hu_mus|hu_hu_hu_mus_True|38_38 (ssRNA)
# RNA: GGGAGUUCUACAGUCCGACGAUCGUUUGGCUGGGGUUUCUGAGACGCUCUGGAAUAUAACUCAUGUUUGCUAAUAAAUCCUAGUUUCUCUAUGAAAUCUCUUUGCCCAAUCCUCUUCUCUAUUAGUUGCUUUAGUUUCUCUUUCAACAGAGGAUUGAGCAUCA
# B13: 53611299_53612085_5349_CDS_ENSG00000086758_ENST00000262854|human|control|control (ssRNA)
# RNA: GGGAGUUCUACAGUCCGACGAUCAUUAACCUGCACCAUUGUAGUGAAUUGGACCGUGUAUCUUCUUCGGCCUGCAGUGAAUCGCACGCUUGUCUCUCCAGAUUUCCAGGCAGAAUCAAUAGUGCUAUUGUUGCUUGCACUGUACAACAGAGGAUUGAGCAUCA
# B14: chr11:87033893:87033894:+_ENSMUSG00000018548_ENSMUST00000041282|mus_mus|FALSE|FALSE (ssRNA)
# RNA: GGGAGUUCUACAGUCCGACGAUCCGUCUACAAAGAGAAUUCUAGGCCAGCCAGGGCUACAUAGUGAGACCCUGCCACAAAAAGAAAGAACGGGAAGGAAAAAGAAGGCAAGCCAGGGUUAGAGAGGUGGUGGCUGGGUUCUCACAACAGAGGAUUGAGCAUCA
# Target: T1, UNK ZnF1-3 (human, UniProt Q9C0B0 31-174)
# T1 sequence: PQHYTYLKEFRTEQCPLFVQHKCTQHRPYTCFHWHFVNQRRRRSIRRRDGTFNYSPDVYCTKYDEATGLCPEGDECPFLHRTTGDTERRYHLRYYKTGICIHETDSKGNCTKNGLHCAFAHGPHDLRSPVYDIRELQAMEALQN
# Experiment: nsRBNS (natural sequence RNA bind-n-seq); RBNS binding buffer (assumed for nsRBNS): 25 mM Tris pH 7.5, 150 mM KCl, 3 mM MgCl2, 0.01% Triton X-100, 500 ug/ml BSA, 20 U/ml SUPERase-In, 4 C; UNK is unkempt and MSI1 is Musashi-1; names of the RNAs are library labels; protein concentration not given here; high values mean tight binding
row,Binder,binding signal
1,B1,0.646 enrichment R
2,B2,1.18 enrichment R
3,B3,0.834 enrichment R
4,B4,0.512 enrichment R
5,B5,1.31 enrichment R
6,B6,0.889 enrichment R
7,B7,1.11 enrichment R
8,B8,0.89 enrichment R
9,B9,1.09 enrichment R
10,B10,1.78 enrichment R
11,B11,1.14 enrichment R
12,B12,0.364 enrichment R
13,B13,0.621 enrichment R
14,B14,1.88 enrichment R
